Source: the RNAGym collection of RNA variant scans (doi:10.1093/nar/gkz1192)
Read counts are not given, so values of variants with three or more changes are uncertain.

B1: CPEB3 Ribozyme (parent)
chain: UAACAGGGGGCCACAGCAGAAGCGUUCACGUCGCAGCCCCUGUCAGAUUCUGGUGAAUCUGCGAAUUCUGCUGUAUAUCUC

Variants of: B1
Assay: self-cleavage, relative activity (ratio to wild type); higher = more cleavage; in vitro, sequencing
Method in brief: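 Relative activity was defined as the cleaved/total read fraction for a variant divided by the same fraction for the unmutated ribozyme. CPEB3 self-cleaving ribozyme libraries were made by rounds of error-prone PCR, barcoded, and transcribed in vitro with T7 RNA polymerase for 5 hours at 37°C, and cleavage ran through transcription plus a 15 min DNase I step before EDTA. Illumina sequencing of template-switched reverse transcripts gave the reads, and DNA sequencing mapped the barcodes. Averages come from three batches, using variants with at least 5 reads.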

For UAACAGGGGACCACAGCAGAAACGUUCGCGUCGCAGCCCUUGUCAGAUUCUGAUGAAUCAGCGAAUUCUGCUGUAUAUCUC [G10A G22A A28G C40U G53A U60A], which self-cleavage is on record?
Its self-cleavage is 0.04.

With UAACAGGGGACCACAGCAGAAGCAUUCACGUCGCAGCCCCUGUCAGUUUCUGGUGGAUCUGCGAAUCCUGCUGUAUAUCAC [G10A G24A A47U A56G U67C U80A] as the variant, how does the self-cleavage read?
The self-cleavage was 0.05.

With UAACAGGGGACCACAGCAGAAGCGUUCACGUCACAGCCCCUGUCGGAUUCUGGUGAAUCUGCGAACUCUGCUGUAUAUCUC [G10A G33A A45G U66C] as the variant, how does the self-cleavage read?
Its self-cleavage is 0.04.

For UAACAGGGGACCACAGCAGAAGCGACCACGUCGCUGCCCCUGUCAGAUUCUGGUGAAUCUGCGAAUUCUGCUGUAUAUCUC [G10A U25A U26C A35U], which self-cleavage is on record?
Its self-cleavage is 0.04.

For UAACAGGGGACCACAGCAGAAGCGAUCACGUCGCAGCCCCUGUCAGAUUCGGGUGAACCUGCGAAUUCUGCUGUUUAUCAC [G10A U25A U51G U58C A75U U80A], which self-cleavage is on record?
The self-cleavage was 0.05.

With UAACAGGGGACCACAGCAGAAGCGCUCACGUCGCAGCCCCUGUCAGAUUCUGGUGGAUCUGCGAAUUCUGCUGUAUACCUC [G10A U25C A56G U78C] as the variant, how does the self-cleavage read?
The self-cleavage was 0.06.

For UAACAGGGGACCACAGCAGAAGCGCUCACGUCGCAGCCCCUGUCAGAUUCUGGUGAGUCUGCGAAUUCUGCUGCAUAUCUC [G10A U25C A57G U74C], which self-cleavage is on record?
Its self-cleavage is 0.17.

With UAACAGGGGACCACAGCAGAAGCGCUCAUGUCGCGGCCCCUGUCAGAUUCUGGUGGAUCUGCGAAUUCUGGCGUAUAUCUC [G10A U25C C29U A35G A56G C71G U72C] as the variant, how does the self-cleavage read?
The self-cleavage was 0.04.

With UAACAGGGGACCACAGCAGAAGCGCUCACGUCUCAGCCCCUGUCAGAUUCUGGUGAAUCUGCGAUCUCUGCUGUAUAUCUC [G10A U25C G33U A65U U66C] as the variant, how does the self-cleavage read?
Its self-cleavage is 0.05.

For UAACAGGGGACCACAGCAGAAGCGCUCACGUCGCAGCCCCUGUCAGAUUCUGGUGAAUCUGCGAAUUCUGCUUUGUAUCCC [G10A U25C G73U A75G U80C], which self-cleavage is on record?
The self-cleavage was 0.2.

Which self-cleavage does the source give for UAACAGGGGACCACAGCAGAAGCGCUCACGUCGCAGCCCCUGUCAGAUUCUGGUGAAUCUGCGAAUUCCGCUGCAUAUCAC [G10A U25C U69C U74C U80A] here?
The self-cleavage was 0.13.

Which self-cleavage does the source give for UAACAGGGGACCACAGCAGAAGCGUACGCGUCGCAGCCCCUGUCAGAUCCUGGUGAAUCUGCGAAUUCCGCUUUAUAUCUC [G10A U26A A28G U49C U69C G73U] here?
Its self-cleavage is 0.03.

With UAACAGGGGACCACAGCAGAAGCGUCCUCGUCGCAGCCACAGUCAGACUCUGGUGAAUCUGCGAAUUCUGCUGUACAUCUC [G10A U26C A28U C39A U41A U48C U76C] as the variant, how does the self-cleavage read?
The self-cleavage was 0.04.

With UAACAGGGGACCACAGCAGAAGCGUCCACGUCGCGGCCCCUGUCGGAUUCUGGUGAAUCUGCGAAUUCUGCUGCACAUCUC [G10A U26C A35G A45G U74C U76C] as the variant, how does the self-cleavage read?
The self-cleavage was 0.1.

With UAACAGGGGACCACAGCAGAAGCGUCCACGUCGCGUCCCCUGUCAGAUUCUGGUGAAUCUGCGAAUUCAGCUGUAUAUCUC [G10A U26C A35G G36U U69A] as the variant, how does the self-cleavage read?
The self-cleavage was 0.04.

For UAACAGGGGACCACAGCAGAAGCGUCCACGUCGCAGCCCCUGUCAGAUUCUGGUGAAUCCGCGAAUUCUGCUGUAUAUCUC [G10A U26C U60C], which self-cleavage is on record?
Its self-cleavage is 0.06.

Which self-cleavage does the source give for UAACAGGGGACCACAGCAGAAGCGUCCACGUCGCAGCCCCUGUCAGAUUCUGGUGAAUCUGCGAAUUCUGCCGUAUAUCCC [G10A U26C U72C U80C] here?
The self-cleavage was 0.21.

For UAACAGGGGACCACAGCAGAAGCGUGCACGUCGCAGCCCCUGUCGGAUUCUGGUGGAUCUGCGCAUUAUGCUGUAUAUCUC [G10A U26G A45G A56G A64C C68A], which self-cleavage is on record?
The self-cleavage was 0.02.

Which self-cleavage does the source give for UAACAGGGGACCACAGCAGAAGCGUUCACGACGCAGCUCCUGUCGGAUUCUGGUGAAUCUGCGAAUUCCGCUGUAUUCCUC [G10A U31A C38U A45G U69C A77U U78C] here?
Its self-cleavage is 0.03.

With UAACAGGGGACCACAGCAGAAGCGUUCACGCCGCAGCCCCUGUCGGAUUCUGGUGAAUCUGCGAAUUCUGCUGUAUUUCUC [G10A U31C A45G A77U] as the variant, how does the self-cleavage read?
The self-cleavage was 0.19.

With UAACAGGGGACCACAGCAGAAGCGUUCACGUCGCAGCCCCAGUCAGACUCUGGUGAAUCUGCGUGUUCUGCUAUAUAUCUC [G10A U41A U48C A64U A65G G73A] as the variant, how does the self-cleavage read?
Its self-cleavage is 0.03.

Which self-cleavage does the source give for UAACAGGGGACCACAGCAGAAGCGUUCACGUCGCAGCCCCAGUCAGAUUCUGGCGAAUCCGCGAAUUCUGCUGUAUAUCUC [G10A U41A U54C U60C] here?
The self-cleavage was 0.1.

With UAACAGGGGACCACAGCAGAAGCGUUCACGUCGCAGCCCCAGUCAGAUUCUGGCGAAUCUGCGAAUUCUGCUGUAUAUCCC [G10A U41A U54C U80C] as the variant, how does the self-cleavage read?
The self-cleavage was 0.17.

For UAACAGGGGACCACAGCAGAAGCGUUCACGUCGCAGCCCCCGUCAGAUUCUGGUGAAUCUGCUAAUUCUGCUGUAUAUCUC [G10A U41C G63U], which self-cleavage is on record?
Its self-cleavage is 0.49.

Which self-cleavage does the source give for UAACAGGGGACCACAGCAGAAGCGUUCACGUCGCAGCCCCCGCCAGAUUCUGGUGAAUCUGCGAAUUCUGCUGUAUGUCUC [G10A U41C U43C A77G] here?
The self-cleavage was 0.05.

With UAACAGGGGACCACAGCAGAAGCGUUCACGUCGCAGCCCCGGUCAGAUCCUGGUGAAUCUGCGAAUUCUGCUGUAUAUCUC [G10A U41G U49C] as the variant, how does the self-cleavage read?
Its self-cleavage is 0.09.

With UAACAGGGGACCACAGCAGAAGCGUUCACGUCGCAGCCCCUGACAGAUUCUGGUGAAUCUGCGAAUUCUGCUGUACAUCUC [G10A U43A U76C] as the variant, how does the self-cleavage read?
The self-cleavage was 0.29.

For UAACAGGGGACCACAGCAGAAGCGUUCACGUCGCAGCCCCUGCCAGAUUCUGGUGAAUCUGUGAAUUCUGCUGAAUAUCUC [G10A U43C C62U U74A], which self-cleavage is on record?
The self-cleavage was 0.22.

With UAACAGGGGACCACAGCAGAAGCGUUCACGUCGCAGCCCCUGCCAGACUCUGGUGAAUCUGCGAAUUCUGCUGUAUAUCUC [G10A U43C U48C] as the variant, how does the self-cleavage read?
The self-cleavage was 0.07.

For UAACAGGGGACCACAGCAGAAGCGUUCACGUCGCAGCCCCUGCCAGAUUCUGGCGUAUCUGCGGAUUCUGCUGUAUGUCUC [G10A U43C U54C A56U A64G A77G], which self-cleavage is on record?
Its self-cleavage is 0.02.

For UAACAGGGGACCACAGCAGAAGCGUUCACGUCGCAGCCCCUGGCAGAUCCUGGUGAAUCUGCGAAUUCUGCUGUAUGUCUC [G10A U43G U49C A77G], which self-cleavage is on record?
The self-cleavage was 0.11.

Which self-cleavage does the source give for UAACAGGGGACCACAGCAGAAGCGUUCACGUCGCAGCCCCUGUCAGAUACUGGUGGAUCUGCGAAUUCUGCUGUAUAUCUC [G10A U49A A56G] here?
Its self-cleavage is 0.25.

Which self-cleavage does the source give for UAACAGGGGACCACAGCAGAAGCGUUCACGUCGCAGCCCCUGUCAGAUACUGGUGGAUCUGCGAACUCUGCUGUAUAUCUC [G10A U49A A56G U66C] here?
Its self-cleavage is 0.03.

For UAACAGGGGACCACAGCAGAAGCGUUCACGUCGCAGCCCCUGUCAGAUACUGGUGAAUCUGCGAGUUCUGCUGUAUAUUUC [G10A U49A A65G C79U], which self-cleavage is on record?
Its self-cleavage is 0.05.
